The results in this text go back to the supplement of paper PMC4604168 (melanoma cell lines).

SMILES strings stand for the structures. The list shows a part of the results. Single values are uncertain, as repeats are few or missing.

Experiment in all cases: cell count relative to DMSO control; melanoma cells; higher = more viable cells
Common to all, as to conditions: library dose: standard library concentration; 72 h

Assay [1] relates to G361.
Assay [2] concerns IPC-298.
Assay [3] deals with IST-MEL1.
The test system of assay [4] is LB2518-MEL.
In assay [5] the test system is LOXIMVI.
Assay [6] has as its system MEL-HO.
Assay [7] relates to MZ2-MEL.
Assay [8] deals with MeWo.
For assay [9], the system named is RPMI7951.
The subject of assay [10] is RVH-421.
Assay [11] concerns SkMel28.
Assay [12] relates to SkMel2.
In assay [13] the test system is SkMel30.
The test system of assay [14] is SkMel5.
In assay [15] the test system is UACC257.
Assay [16] relates to UACC62.
Assay [17] concerns WM115.
Assay [18] deals with WM1716.
The subject of assay [19] is WM3526.
Assay [20] concerns WM1745.
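Also: cells treated in 1,536-well plates, then fixed and DAPI-stained, with nuclei counted from automated high-throughput microscope images.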

As to `CN1CCN(c2ccc3nc(-c4c(N)c5c(F)cccc5[nH]c4=O)[nH]c3c2)CC1` [Dovitinib] + Cc1cc([N+](=O)[O-])ccc1NS(=O)(=O)c1cc(Cl)ccc1Cl [FH535] (first compound 0.5 µM, partner dose 5 µM), the cell count in assay [1] was 32.5%; in assay [2] it was 48.5%; in [3], 43.5%; in assay [4] it was 50.3%; in [5], 73.9%; in assay [6] it was 54.8%. The cell count in assay [7] turned out to be 42.9%; in [8], 47.4%; in [9], 85.9%; in assay [10] it was 80.4%; in assay [11], 38.4%; in assay [12] it was 50.2%. Besides, the cell count in assay [13] was 95.2%; in assay [14], 53.6%; in [15], 53.1%; in [16], 78.9%; in assay [17], 68.7%; in assay [18], 73.7%. In assay [19], this compound registered a cell count of 61%.

With `CS(=O)(=O)CCNCc1ccc(-c2ccc3ncnc(Nc4ccc(OCc5cccc(F)c5)c(Cl)c4)c3c2)o1` [lapatinib] + COc1ccc2c(c1)CCC1C2CCC2(C)C(NCCCCCCN3C(=O)C=CC3=O)CCC12 [U73122] (first compound 4 µM, partner dose 2 µM), the cell count was 25.6% in [1]; 67.9% in assay [2]; 90.7% in assay [3]; 85.9% in [4]; 64.6% in assay [5]; 63.6% in assay [6]. The cell count in assay [7] came out at 61.6%; in assay [8], 47.3%; in [9] it was 13.2%; in [10], 73.2%; in [11], 62.3%; in assay [12], 77.1%. The cell count was 80.3% in assay [13]; 43.2% in assay [14]; 96.6% in assay [15]; 37.9% in assay [16]; 89.9% in assay [17]; 68.1% in [18]. In addition, the cell count in assay [19] was 63.4%.

Take `CNC(=O)c1cc(Oc2ccc(NC(=O)Nc3ccc(Cl)c(C(F)(F)F)c3)cc2)ccn1` [sorafenib] + COc1ccc(-c2ccc3c(N4CCOCC4)nc(N4C[C@@H](C)O[C@@H](C)C4)nc3n2)cc1CO [KU0063794] (first compound 2 µM, partner dose 0.1 µM): the cell count in assay [1] came out at 77.4%; in assay [2], 84.8%; in assay [3], 81.3%; in [4], 80.5%; in [5] it was 112%; in [6], 84.3%. Further, the cell count in assay [7] is 102%; in [8], 71.2%; in [9], 83.9%; in assay [10], 102%; in assay [11], 62.1%; in assay [12], 68.7%. Also, the cell count in assay [13] worked out at 95%; in assay [14], 54.7%; in assay [15], 82.7%; in assay [16], 99.1%; in assay [17], 75.7%; in assay [18], 61.3%. In assay [19], this compound had a cell count of 69.7%.

Turning to `C[C@@H](Oc1cc(-c2cnn(C3CCNCC3)c2)cnc1N)c1c(Cl)ccc(F)c1Cl` [Crizotinib] + COc1cc2ncnc(Nc3ccc(Oc4ccccc4)cc3)c2cc1OC [SrcI1] (first compound 1 µM, partner dose 10 µM), the cell count in assay [1] worked out at 52.6%; in [2], 79.6%; in assay [3], 78%; in [4] it was 122%; in assay [5], 95.1%; in [6] it was 82.1%. For the same compound, the cell count is 70.2% in assay [7]; 63.3% in assay [8]; 42.8% in assay [9]; 130% in [10]; 66.8% in assay [11]; 87.4% in assay [12]. For the same compound, the cell count stood at 84.4% in assay [13]; 64% in assay [14]; 73% in assay [15]; 78.4% in [16]; 56.1% in assay [17]; 73.2% in [18]. In [19], this compound gave a cell count of 51.4%.

As for `CS(=O)(=O)CCNCc1ccc(-c2ccc3ncnc(Nc4ccc(OCc5cccc(F)c5)c(Cl)c4)c3c2)o1` [lapatinib] + c1cc(-c2cnn3cc(-c4ccc(OCCN5CCCCC5)cc4)cnc23)ccn1 [Dorsomorphin] (first compound 4 µM, partner dose 2 µM), the cell count in [1] was 3.79%; in assay [2] it was 62%; in assay [3], 84.2%; in assay [4], 47.3%; in assay [5], 83.6%; in assay [6], 57.3%. The cell count was 28% in assay [7]; 53.2% in assay [8]; 14.8% in assay [9]; 91.2% in [10]; 51.4% in assay [11]; 70.7% in [12]. Moreover, the cell count was 72.8% in [13]; 46% in [14]; 58.9% in assay [15]; 47.2% in [16]; 61.4% in assay [17]; 73% in [18]. The same compound returned a cell count in assay [19] of 66%.

For the compound `C=CCNC1=C2C[C@@H](C)C[C@H](OC)[C@H](O)[C@@H](C)/C=C(\C)[C@H](OC(N)=O)[C@@H](OC)/C=C\C=C(/C)C(=O)NC(=CC1=O)C2=O` [Tanespimycin] + O=C1NC(=O)/C(=C/c2ccc(-c3ccc(F)cc3O)o2)S1 [AS252424] (first compound 0.01 µM, partner dose 5 µM), the cell count in [1] is 60.4%; in assay [2], 78.1%; in assay [3], 75.8%; in assay [4] it was 76.8%; in [5], 126%; in assay [6], 78.1%. The cell count in assay [7] stood at 102%; in assay [8] it was 66.9%; in [9], 24.9%; in assay [10], 108%; in assay [11] it was 54.3%; in assay [12], 83.4%. The cell count in assay [13] was determined as 118%; in [14], 61.9%; in assay [15] it was 98.4%; in assay [16], 62.2%; in assay [17], 23.5%; in assay [18], 94.7%. The cell count in assay [19] was 69.9%.

With `C=CCNC1=C2C[C@@H](C)C[C@H](OC)[C@H](O)[C@@H](C)/C=C(\C)[C@H](OC(N)=O)[C@@H](OC)/C=C\C=C(/C)C(=O)NC(=CC1=O)C2=O` [Tanespimycin] + O=C(Nc1cccc(Cl)c1)Nc1ncc(CCNc2ncnc3ccsc23)s1 [SNS314] (first compound 0.01 µM, partner dose 0.004 µM), the cell count in assay [1] was 33.9%; in [2], 75.2%; in assay [3], 39.3%; in assay [5] it was 69%; in [6] it was 66.6%; in assay [8] it was 51.4%. Besides, the cell count in [9] was 13.8%; in [10], 81.6%; in assay [11], 25.8%; in assay [12], 69.7%; in assay [13], 82.8%; in [14], 70.5%. Besides, the cell count worked out at 81.9% in assay [15]; 65.1% in assay [16]; 24.7% in [17]; 53.2% in [18]; 61.8% in assay [20]; 63.6% in [19].
